Measured values as given in the supplement of paper PMC10338343.
± gives the standard deviation. The list shows a part of the results, in another mix than the full data.

tested on: MIWI (PIWIL1) piRISC loaded with L1MC piRNA (30 nt); test: pre-steady-state target cleavage rate (min^-1); MIWI and MILI are mouse PIWI proteins and EfPiwi is from a freshwater sponge; tags in brackets are library labels; higher = faster piRNA-guided slicing of the target; conditions: guide: L1MC piRNA 5'p-UAACUAAAUACUAUGCAAGCUGUAGGUCCU; auxiliary factor: 500 nM mouse GTSF1
Protocol: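 Cleave-'n-Seq: a library of target RNAs (target site embedded in constant flanks, ACAGCATTCCGCGTTAGTGATATCCG... 5' flank; DNA-blocked outside the site) at 0.1 nM was incubated with 1 nM active mouse MILI or MIWI piRISC (synthetic 5'-monophosphorylated piRNA guide) with or without 500 nM mouse GTSF1 at 33 °C for 1 min to 16 h. Uncleaved targets were sequenced and normalised to non-target controls, and the pooled three trials were fitted to a burst-and-steady-state model to give the pre-steady-state cleavage rate (min^-1; k3 is constrained to at most 1e-4). Sequence is the target site only; target names encode pairing extent (gX:gY) and contiguous / 1-mismatch / 2-mismatch / bulge geometry. Fits with R² ≤ 0 are excluded.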

| Sequence | pre-steady-state target cleavage rate |
| --- | --- |
| UGGACGUACAGCUUCCAUAGUAUUUAGUUA | 0.0744 ± 0.012 |
| UCCUGGUACUGCUUGCUUAGUAUUUAGUUA | 0.627 ± 0.04 |
| UCCUGGAACAGCUUGCUUAGUAUUUAGUAA | 0.604 ± 0.048 |
| AGGACCUACUGCUUGCAUAGUAUUUACUUA | 0.322 ± 0.031 |
| UCCUGGUACAGCUAGCAAAGUAUUUAGUUA | 0.564 ± 0.049 |
| UCGACCUAGAGCUAGCAUAGUAUUUAGUUA | 1.11 ± 0.052 |
| UCCUGCAACAGCUUGCAUAGUAUUUUCAAA | 0.194 ± 0.036 |
| UCCUGGUACAGCUUGCAAAGUAUUUACUUA | 0.161 ± 0.033 |
| UCCUGGAUCACCUUGCAUAGUAUUUAGUAA | 0.336 ± 0.051 |
| UCCUGCUAGAGCUUGCAUAGUAUUUAGUAA | 0.271 ± 0.031 |
| UCGACCUACUGCUUGCAUAGUAUAUAGUUA | 0.819 ± 0.036 |
| UCCUGGAACAGCUUGACAUAGUAUUUAGUUA | 0.577 ± 0.039 |
| UCCUGGAUCAGCUUGCUAAGUAUUUAGUAA | 0.00706 ± 0.004 |
| UCCUGGAACAGGUUGCAUAGUAUUUAGUAA | 0.751 ± 0.067 |
| UCCACGUACAGCUUGCAUAGUUUUUAGUUA | 0.427 ± 0.021 |
| AGGACCGACAGCUUGCAUAGUAUUUAGUUA | 1.21 ± 0.058 |
| UGGACCUACAGCUAGCAUAGUAUUUAGAUA | 0.508 ± 0.042 |
| UCGACCUACAGCUUGCAUAGAUAUUAGUUA | 0.144 ± 0.046 |
| UCCACCUACACCUAGCAUAGUAUUUAGUUA | 0.768 ± 0.051 |
| UCGACCUACAGCUUGCAUAGUAUUUACGUUA | 0.862 ± 0.043 |
| UCCACCUACAGCUUGCAAAGUAUUAAGUUA | 0.431 ± 0.034 |
| UCGACCAACAGCUUGCAUAGUAUUAAGUUA | 0.715 ± 0.038 |

same assay, conditions: guide: L1MC piRNA 5'p-UAACUAAAUACUAUGCAAGCUGUAGGUCCU; auxiliary factor: none (no GTSF1)

| Sequence | pre-steady-state target cleavage rate |
| --- | --- |
| UGGACGUACAGCUUCCAUAGUAUUUAGUUA | 0.00782 ± 0.0015 |
| UCCUGGUACUGCUUGCUUAGUAUUUAGUUA | 0.025 ± 0.0057 |
| UCCUGGAACAGCUUGCUUAGUAUUUAGUAA | 0.0119 ± 0.0031 |
| AGGACCUACUGCUUGCAUAGUAUUUACUUA | 0.0369 ± 0.0057 |
| UCCUGGUACAGCUAGCAAAGUAUUUAGUUA | 0.0116 ± 0.003 |
| UCGACCUAGAGCUAGCAUAGUAUUUAGUUA | 0.0171 ± 0.0037 |
| UCCUGGUACAGCUUGCAAAGUAUUUACUUA | 0.0201 ± 0.0047 |
| UCCUGGAUCACCUUGCAUAGUAUUUAGUAA | 0.0068 ± 0.0025 |
| UCCUGCUAGAGCUUGCAUAGUAUUUAGUAA | 0.015 ± 0.0036 |
| UCGACCUACUGCUUGCAUAGUAUAUAGUUA | 0.0363 ± 0.0084 |
| UCCUGGAACAGCUUGACAUAGUAUUUAGUUA | 0.00762 ± 0.0037 |
| UCCUGGAACAGGUUGCAUAGUAUUUAGUAA | 0.0102 ± 0.0026 |
| UCCACGUACAGCUUGCAUAGUUUUUAGUUA | 0.0381 ± 0.0084 |
| AGGACCGACAGCUUGCAUAGUAUUUAGUUA | 0.0903 ± 0.017 |
| UGGACCUACAGCUAGCAUAGUAUUUAGAUA | 0.00987 ± 0.0025 |
| UCCACCUACACCUAGCAUAGUAUUUAGUUA | 0.0154 ± 0.003 |
| UCGACCUACAGCUUGCAUAGUAUUUACGUUA | 0.0475 ± 0.0078 |
| UCCACCUACAGCUUGCAAAGUAUUAAGUUA | 0.00855 ± 0.0023 |
| UCGACCAACAGCUUGCAUAGUAUUAAGUUA | 0.0344 ± 0.0084 |
